The values that follow come from publication PMC12820563.

Some of the results follow. The list includes weakly bound sequences.

This test has as its target T1, MBP-FoxP3dN (UniProt Q99JB6).
T1 sequence: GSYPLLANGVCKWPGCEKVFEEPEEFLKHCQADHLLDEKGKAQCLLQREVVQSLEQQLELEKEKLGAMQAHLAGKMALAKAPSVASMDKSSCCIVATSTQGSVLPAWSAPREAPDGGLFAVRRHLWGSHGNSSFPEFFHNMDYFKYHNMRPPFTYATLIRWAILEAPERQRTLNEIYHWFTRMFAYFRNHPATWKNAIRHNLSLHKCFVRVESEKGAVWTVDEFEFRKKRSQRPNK
As to the kind of experiment: PD-seq (MBP pull-down with sequencing). The conditions noted are these: 20 mM Tris-HCl pH 7.5, 100 mM NaCl, 1.5 mM MgCl2, 0.4 uM protein, 0.1 uM dsDNA library, 30 min, room temperature, amylose pull-down; high values mean tight binding; double strand, one strand shown.
As to “GATGATTGTTCTCCCAGCTGATGAATTGATAACTTCGAGTAAACAAATTTTCCTAATCTTTCTGTTCAAGCGCCATCTAC”, the binding signal (RPM ratio (pull-down/input)) was 0.437.
The value for “GATGATTGTTCTCCCAGCTGATGAATTAGCAAGATCGAGTAAACAAATTTTCCTAATCTTTCTGTTCAAGCGCCATCTAC” was 0.304; that for “GATGATTGTTCTCCCAGCTGATGAATTCTACTCATCGAGTAAACAAATTTTCCTAATCTTTCTGTTCAAGCGCCATCTAC” was 0.414.
For “GATGATTGTTCTCCCAGCTGATGAATTTCGATTGTCGAGTAAACAAATTTTCCTAATCTTTCTGTTCAAGCGCCATCTAC”, the binding signal (RPM ratio (pull-down/input)) came out at 2.91.
With “GATGATTGTTCTCCCAGCTGATGAATTACGGCTGTCGAGTAAACAAATTTTCCTAATCTTTCTGTTCAAGCGCCATCTAC”, the binding signal (RPM ratio (pull-down/input)) turned out to be 0.43.
Turning to “GATGATTGTTCTCCCAGCTGATGAATTAAGGGGCTCGAGTAAACAAATTTTCCTAATCTTTCTGTTCAAGCGCCATCTAC”, the binding signal (RPM ratio (pull-down/input)) amounted to 0.355.
For “GATGATTGTTCTCCCAGCTGATGAATTCGCGACCTCGAGTAAACAAATTTTCCTAATCTTTCTGTTCAAGCGCCATCTAC”, the binding signal (RPM ratio (pull-down/input)) was determined as 0.458.
Consider “GATGATTGTTCTCCCAGCTGATGAATTATCGATCTCGAGTAAACAAATTTTCCTAATCTTTCTGTTCAAGCGCCATCTAC”, for which the binding signal (RPM ratio (pull-down/input)) worked out at 0.385.
With “GATGATTGTTCTCCCAGCTGATGAATTGGTTATGTCGAGTAAACAAATTTTCCTAATCTTTCTGTTCAAGCGCCATCTAC”, the binding signal (RPM ratio (pull-down/input)) stood at 2.38.
Consider “GATGATTGTTCTCCCAGCTGATGAATTGGACGCTTCGAGTAAACAAATTTTCCTAATCTTTCTGTTCAAGCGCCATCTAC”, for which the binding signal (RPM ratio (pull-down/input)) came out at 0.494.
For “GATGATTGTTCTCCCAGCTGATGAATTCCTCCATTCGAGTAAACAAATTTTCCTAATCTTTCTGTTCAAGCGCCATCTAC”, the binding signal (RPM ratio (pull-down/input)) turned out to be 0.272.
As to “GATGATTGTTCTCCCAGCTGATGAATTCAGGCAATCGAGTAAACAAATTTTCCTAATCTTTCTGTTCAAGCGCCATCTAC”, the binding signal (RPM ratio (pull-down/input)) is 1.5.
With “GATGATTGTTCTCCCAGCTGATGAATTGCAAGCGTCGAGTAAACAAATTTTCCTAATCTTTCTGTTCAAGCGCCATCTAC”, the binding signal (RPM ratio (pull-down/input)) was determined as 0.974.
Take “GATGATTGTTCTCCCAGCTGATGAATTGCACCCGTCGAGTAAACAAATTTTCCTAATCTTTCTGTTCAAGCGCCATCTAC”: the binding signal (RPM ratio (pull-down/input)) is 0.736.
“GATGATTGTTCTCCCAGCTGATGAATTGTCAACCTCGAGTAAACAAATTTTCCTAATCTTTCTGTTCAAGCGCCATCTAC”: the binding signal (RPM ratio (pull-down/input)) is 0.625.
To “GATGATTGTTCTCCCAGCTGATGAATTAATACGTTCGAGTAAACAAATTTTCCTAATCTTTCTGTTCAAGCGCCATCTAC” belongs 0.606; to “GATGATTGTTCTCCCAGCTGATGAATTGTTTCTGTCGAGTAAACAAATTTTCCTAATCTTTCTGTTCAAGCGCCATCTAC”, 1; to “GATGATTGTTCTCCCAGCTGATGAATTTGGGATATCGAGTAAACAAATTTTCCTAATCTTTCTGTTCAAGCGCCATCTAC”, 0.503.
Take “GATGATTGTTCTCCCAGCTGATGAATTTCCGACGTCGAGTAAACAAATTTTCCTAATCTTTCTGTTCAAGCGCCATCTAC”: the binding signal (RPM ratio (pull-down/input)) was determined as 0.265.
“GATGATTGTTCTCCCAGCTGATGAATTATCTAGGTCGAGTAAACAAATTTTCCTAATCTTTCTGTTCAAGCGCCATCTAC”: the binding signal (RPM ratio (pull-down/input)) is 0.191.
To “GATGATTGTTCTCCCAGCTGATGAATTGAGTAGGTCGAGTAAACAAATTTTCCTAATCTTTCTGTTCAAGCGCCATCTAC” belongs 0.379.
For the sequence “GATGATTGTTCTCCCAGCTGATGAATTCGCATAGTCGAGTAAACAAATTTTCCTAATCTTTCTGTTCAAGCGCCATCTAC”, the binding signal (RPM ratio (pull-down/input)) is 0.664.
For “GATGATTGTTCTCCCAGCTGATGAATTTGTCGACTCGAGTAAACAAATTTTCCTAATCTTTCTGTTCAAGCGCCATCTAC”, the binding signal (RPM ratio (pull-down/input)) was found to be 1.81.
With “GATGATTGTTCTCCCAGCTGATGAATTTGTATTCTCGAGTAAACAAATTTTCCTAATCTTTCTGTTCAAGCGCCATCTAC”, the binding signal (RPM ratio (pull-down/input)) is 5.9.
Consider “GATGATTGTTCTCCCAGCTGATGAATTGGTCCTGTCGAGTAAACAAATTTTCCTAATCTTTCTGTTCAAGCGCCATCTAC”, for which the binding signal (RPM ratio (pull-down/input)) came out at 0.354.
“GATGATTGTTCTCCCAGCTGATGAATTTGATCTGTCGAGTAAACAAATTTTCCTAATCTTTCTGTTCAAGCGCCATCTAC”: the binding signal (RPM ratio (pull-down/input)) was found to be 0.416.
As to “GATGATTGTTCTCCCAGCTGATGAATTCCCTGTATCGAGTAAACAAATTTTCCTAATCTTTCTGTTCAAGCGCCATCTAC”, the binding signal (RPM ratio (pull-down/input)) amounted to 0.404.
Turning to “GATGATTGTTCTCCCAGCTGATGAATTACCGGCTTCGAGTAAACAAATTTTCCTAATCTTTCTGTTCAAGCGCCATCTAC”, the binding signal (RPM ratio (pull-down/input)) came to 0.307.
The value for “GATGATTGTTCTCCCAGCTGATGAATTGCCTTTGTCGAGTAAACAAATTTTCCTAATCTTTCTGTTCAAGCGCCATCTAC” was 0.946; that for “GATGATTGTTCTCCCAGCTGATGAATTACTCTTCTCGAGTAAACAAATTTTCCTAATCTTTCTGTTCAAGCGCCATCTAC” was 0.331.
Consider “GATGATTGTTCTCCCAGCTGATGAATTCCCCCTGTCGAGTAAACAAATTTTCCTAATCTTTCTGTTCAAGCGCCATCTAC”, for which the binding signal (RPM ratio (pull-down/input)) was determined as 0.198.
For “GATGATTGTTCTCCCAGCTGATGAATTCAATGGGTCGAGTAAACAAATTTTCCTAATCTTTCTGTTCAAGCGCCATCTAC”, the binding signal (RPM ratio (pull-down/input)) amounted to 0.623.
